# The other results are listed elsewhere or left out.
# Experiments:
# Assay in all cases: glycan array binding signal (z-score within array); higher = stronger binding
# Conditions in all cases: glycan notation: IUPAC condensed, linker removed
# [1] = target: Fuc(a1-2)Gal(b1-4)GlcNAc(b1-3)Gal(b1-4)GlcNAc(b1-3)Gal(b1-4)GlcNAc
# Outline: (§1)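 From the Consortium for Functional Glycomics database, 3228 arrays were curated, keeping only those whose protein sequence was available. Binding is given as a within-array Z-score averaged across arrays sharing a protein sequence and across linkers. Negative Z-scores can be read as non-binding.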
# [2] = target: Fuc(a1-2)Gal(b1-4)GlcNAc(b1-3)GalNAc
# Outline: as §1
# [3] = target: Fuc(a1-2)Gal(b1-4)GlcNAc(b1-3)[Fuc(a1-2)Gal(b1-4)GlcNAc(b1-6)]GalNAc
# Outline: as §1
# [4] = target: Fuc(a1-2)Gal(b1-4)GlcNAc(b1-6)GalNAc
# Outline: as §1
# [5] = target: Fuc(a1-2)Gal(b1-4)GlcNAc6S
# Outline: as §1
# [6] = target: Fuc(a1-2)Gal(b1-4)[Fuc(a1-3)]GlcNAc
# Outline: as §1
# [7] = target: Fuc(a1-2)Gal(b1-4)[Fuc(a1-3)]GlcNAc(b1-2)Man(a1-3)[Fuc(a1-2)Gal(b1-4)[Fuc(a1-3)]GlcNAc(b1-2)Man(a1-6)]Man(b1-4)GlcNAc(b1-4)GlcNAc
# Outline: as §1
# [8] = target: Fuc(a1-2)Gal(b1-4)[Fuc(a1-3)]GlcNAc(b1-2)Man(a1-6)[Fuc(a1-2)Gal(b1-4)[Fuc(a1-3)]GlcNAc(b1-2)Man(a1-3)]Man(b1-4)GlcNAc(b1-4)[Fuc(a1-6)]GlcNAc
# Outline: as §1
# [9] = target: Fuc(a1-2)Gal(b1-4)[Fuc(a1-3)]GlcNAc(b1-2)[Fuc(a1-2)Gal(b1-4)[Fuc(a1-3)]GlcNAc(b1-4)]Man(a1-3)[Fuc(a1-2)Gal(b1-4)[Fuc(a1-3)]GlcNAc(b1-2)Man(a1-6)]Man(b1-4)GlcNAc(b1-4)GlcNAc
# Outline: as §1
# [10] = target: Fuc(a1-2)Gal(b1-4)[Fuc(a1-3)]GlcNAc(b1-3)Gal(b1-4)[Fuc(a1-3)]GlcNAc
# Outline: as §1
# [11] = target: Fuc(a1-2)Gal(b1-4)[Fuc(a1-3)]GlcNAc(b1-3)Gal(b1-4)[Fuc(a1-3)]GlcNAc(b1-3)Gal(b1-4)[Fuc(a1-3)]GlcNAc
# Outline: as §1
# [12] = target: Fuc(a1-2)Gal(b1-4)[Fuc(a1-3)]GlcNAc(b1-3)GalNAc
# Outline: as §1
# [13] = target: Fuc(a1-2)Gal(b1-4)[Fuc(a1-3)]GlcNAc(b1-3)[Neu5Ac(a2-6)Gal(b1-4)GlcNAc(b1-6)]Gal(b1-4)Glc
# Outline: as §1
# [14] = target: Fuc(a1-2)Gal6S(b1-3)GlcNAc
# Outline: as §1
# [15] = target: Fuc(a1-2)Gal6S(b1-3)GlcNAc6S
# Outline: as §1
# Fuc(a1-2)Gal6S(b1-4)Glc = target: Fuc(a1-2)Gal6S(b1-4)Glc
# Outline: as §1
# [16] = target: Fuc(a1-2)Gal6S(b1-4)Glc6S
# Outline: as §1
# [17] = target: Fuc(a1-2)Gal6S(b1-4)GlcNAc
# Outline: as §1
# Fuc(a1-2)GlcNAc = target: Fuc(a1-2)GlcNAc
# Outline: as §1
# Fuc(a1-2)[Gal(a1-3)]Gal = target: Fuc(a1-2)[Gal(a1-3)]Gal
# Outline: as §1
# [18] = target: Fuc(a1-2)[Gal(a1-3)]Gal(b1-3)GalNAc
# Outline: as §1
# [19] = target: Fuc(a1-2)[Gal(a1-3)]Gal(b1-3)GlcNAc
# Outline: as §1
# [20] = target: Fuc(a1-2)[Gal(a1-3)]Gal(b1-3)GlcNAc(b1-2)Man(a1-3)[Fuc(a1-2)[Gal(a1-3)]Gal(b1-3)GlcNAc(b1-2)Man(a1-6)]Man(b1-4)GlcNAc(b1-4)GlcNAc
# Outline: as §1
# [21] = target: Fuc(a1-2)[Gal(a1-3)]Gal(b1-3)GlcNAc(b1-2)Man(a1-3)[Fuc(a1-2)[Gal(a1-3)]Gal(b1-3)GlcNAc(b1-2)Man(a1-6)]Man(b1-4)GlcNAc(b1-4)[Fuc(a1-6)]GlcNAc
# Outline: as §1
# [22] = target: Fuc(a1-2)[Gal(a1-3)]Gal(b1-3)GlcNAc(b1-3)GalNAc
# Outline: as §1
# [23] = target: Fuc(a1-2)[Gal(a1-3)]Gal(b1-4)Glc
# Outline: as §1
# [24] = target: Fuc(a1-2)[Gal(a1-3)]Gal(b1-4)GlcNAc
# Outline: as §1
# [25] = target: Fuc(a1-2)[Gal(a1-3)]Gal(b1-4)GlcNAc(b1-2)Man(a1-3)[Fuc(a1-2)[Gal(a1-3)]Gal(b1-4)GlcNAc(b1-2)Man(a1-6)]Man(b1-4)GlcNAc(b1-4)GlcNAc
# Outline: as §1
# [26] = target: Fuc(a1-2)[Gal(a1-3)]Gal(b1-4)GlcNAc(b1-2)Man(a1-3)[Fuc(a1-2)[Gal(a1-3)]Gal(b1-4)GlcNAc(b1-2)Man(a1-6)]Man(b1-4)GlcNAc(b1-4)[Fuc(a1-6)]GlcNAc
# Outline: as §1
# [27] = target: Fuc(a1-2)[Gal(a1-3)]Gal(b1-4)GlcNAc(b1-3)GalNAc
# Outline: as §1
binder,measurement,setting,value
"StcE (Escherichia coli), O82882.2 (protein) ADNNSAIYFNTSQPINDLQGSLAAEVKFAQSQILPAHPKEGDSQPHLTSLRKSLLLVRPVKADDKTPVQVEARDDNNKILGTLTLYPPSSLPDTIYHLDGVPEGGIDFTPHNGTKKIINTVAEVNKLSDASGSSIHSHLTNNALVEIHTANGRWVRDIYLPQGPDLEGKMVRFVSSAGYSSTVFYGDRKVTLSVGNTLLFKYVNGQWFRSGELENNRITYAQHIWSAELPAHWIVPGLNLVIKQGNLSGRLNDIKIGAPGELLLHTIDIGMLTTPRDRFDFAKDKEAHREYFQTIPVSRMIVNNYAPLHLKEVMLPTGELLTDMDPGNGGWHSGTMRQRIGKELVSHGIDNANYGLNSTAGLGENSHPYVVAQLAAHNSRGNYANGIQVHGGSGGGGIVTLDSTLGNEFSHEVGHNYGLGHYVDGFKGSVHRSAENNNSTWGWDGDKKRFIPNFYPSQTNEKSCLNNQCQEPFDGHKFGFDAMAGGSPFSAANRFTMYTPNSSAIIQRFFENKAVFDSRSSTGFSKWNADTQEMEPYEHTIDRAEQITASVNELSESKMAELMAEYAVVKVHMWNGNWTRNIYIPTASADNRGSILTINHEAGYNSYLFINGDEKVVSQGYKKSFVSDGQFWKERDVVDTREARKPEQFGVPVTTLVGYYDPEGTLSSYIYPAMYGAYGFTYSDDSQNLSDNDCQLQVDTKEGQLRFRLANHRANNTVMNKFHINVPTESQPTQATLVCNNKILDTKSLTPAPEGLTYTVNGQALPAKENEGCIVSVNSGKRYCLPVGQRSGYSLPDWIVGQEVYVDSGAKAKVLLSDWDNLSYNRIGEFVGNVNPADMKKVKAWNGQYLDFSKPRSMRVVYK",glycan array binding signal (z-score),[1],-0.065
same,glycan array binding signal (z-score),[2],-0.172
same,glycan array binding signal (z-score),[3],2.85
same,glycan array binding signal (z-score),[4],0.098
same,glycan array binding signal (z-score),[5],-0.172
same,glycan array binding signal (z-score),[6],-0.141
same,glycan array binding signal (z-score),[7],-0.102
same,glycan array binding signal (z-score),[8],-0.096
same,glycan array binding signal (z-score),[9],0.068
same,glycan array binding signal (z-score),[10],-0.122
same,glycan array binding signal (z-score),[11],0.133
same,glycan array binding signal (z-score),[12],0.043
same,glycan array binding signal (z-score),[13],-0.159
same,glycan array binding signal (z-score),[14],-0.111
same,glycan array binding signal (z-score),[15],5.23
same,glycan array binding signal (z-score),Fuc(a1-2)Gal6S(b1-4)Glc,-0.165
same,glycan array binding signal (z-score),[16],-0.119
same,glycan array binding signal (z-score),[17],-0.135
same,glycan array binding signal (z-score),Fuc(a1-2)GlcNAc,-0.663
same,glycan array binding signal (z-score),Fuc(a1-2)[Gal(a1-3)]Gal,-0.055
same,glycan array binding signal (z-score),[18],-0.151
same,glycan array binding signal (z-score),[19],-0.157
same,glycan array binding signal (z-score),[20],-0.132
same,glycan array binding signal (z-score),[21],-0.102
same,glycan array binding signal (z-score),[22],-0.107
same,glycan array binding signal (z-score),[23],-0.17
same,glycan array binding signal (z-score),[24],-0.397
same,glycan array binding signal (z-score),[25],-0.116
same,glycan array binding signal (z-score),[26],0.196
same,glycan array binding signal (z-score),[27],0.002

# Source: the supplement of paper PMC8728848
